These results are taken from publication PMC4336329 (PLoS ONE, 2015).

SMILES strings stand for the structures. Among all 310,000 compounds or so, about 14,000 (4.5%) showed an effect of 50% or more. The effect is printed as a negative number. Some of the results follow.
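Further: peak tail current of the secondary pulse compared with the same well before compound.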

The target in the assay is human ether-à-go-go-related gene (hERG) potassium channel (human, UniProt Q12809). The experiment in a line: primary screen, population patch clamp on CHO cells stably expressing hERG.
human ether-à-go-go-related gene (hERG) potassium channel, sequence (Q12809 whole entry, looked up): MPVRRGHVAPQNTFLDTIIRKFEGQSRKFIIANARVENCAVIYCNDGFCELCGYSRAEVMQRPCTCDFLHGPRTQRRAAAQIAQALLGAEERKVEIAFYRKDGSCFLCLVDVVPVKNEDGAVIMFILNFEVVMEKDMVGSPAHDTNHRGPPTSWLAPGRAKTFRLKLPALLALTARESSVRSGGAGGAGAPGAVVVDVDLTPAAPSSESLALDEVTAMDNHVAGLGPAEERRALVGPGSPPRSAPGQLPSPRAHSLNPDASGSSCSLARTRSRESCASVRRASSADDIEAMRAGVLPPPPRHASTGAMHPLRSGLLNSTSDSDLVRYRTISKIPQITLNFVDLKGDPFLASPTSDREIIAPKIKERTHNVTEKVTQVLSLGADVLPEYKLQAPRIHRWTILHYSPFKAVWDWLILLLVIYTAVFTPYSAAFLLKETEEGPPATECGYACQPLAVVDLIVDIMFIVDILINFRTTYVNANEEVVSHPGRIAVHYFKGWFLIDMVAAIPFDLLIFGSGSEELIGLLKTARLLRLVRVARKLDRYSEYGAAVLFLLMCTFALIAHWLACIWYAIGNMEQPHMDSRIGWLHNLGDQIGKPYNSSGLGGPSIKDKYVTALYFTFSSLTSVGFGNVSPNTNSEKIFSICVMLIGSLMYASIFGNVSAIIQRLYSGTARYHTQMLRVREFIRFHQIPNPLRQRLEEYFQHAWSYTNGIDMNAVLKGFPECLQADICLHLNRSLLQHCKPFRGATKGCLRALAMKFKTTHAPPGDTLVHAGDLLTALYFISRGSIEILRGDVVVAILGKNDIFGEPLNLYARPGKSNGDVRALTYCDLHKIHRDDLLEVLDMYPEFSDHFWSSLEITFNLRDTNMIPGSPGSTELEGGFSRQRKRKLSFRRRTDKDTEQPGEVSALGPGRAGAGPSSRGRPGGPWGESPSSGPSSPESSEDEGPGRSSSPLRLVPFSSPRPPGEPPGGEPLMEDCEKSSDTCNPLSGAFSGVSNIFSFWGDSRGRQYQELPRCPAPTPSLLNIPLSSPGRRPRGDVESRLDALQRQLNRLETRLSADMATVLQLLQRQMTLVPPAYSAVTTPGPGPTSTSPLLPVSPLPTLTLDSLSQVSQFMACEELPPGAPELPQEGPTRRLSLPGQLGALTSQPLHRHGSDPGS
Consider `O=C(Oc1cc(Cl)ccc1Cl)c1ccc(N2CCOCC2)c([N+](=O)[O-])c1`, for which the “hERG current change (%, negative = inhibition) at 10uM” value is 4.44%.

For `CCOC(=O)C1(Cc2ccccc2)CCCN(S(=O)(=O)N(C)C)C1` (stereo not drawn), the “hERG current change (%, negative = inhibition) at 10uM” value is -6.05%.

For the compound `COc1ccc(OCC(=O)Nc2nc3c(s2)CCCC3)cc1`, the “hERG current change (%, negative = inhibition) at 10uM” value is -3.56%.

For the compound `CCOC(=O)CC(=O)Nc1c(C)cc(C)cc1C`, the “hERG current change (%, negative = inhibition) at 10uM” value was found to be 4.74%. For `Cc1ccc(C)c(N(CC(=O)NC2CCCCC2)C(=O)c2csnn2)c1` the value was 18.9%; for `CCn1c(SCc2nc3ccccc3[nH]2)nnc1-c1cccnc1`, 18.4%; for `O=C1CCN(C(=O)/C=C/c2ccccc2)c2ccccc21`, -19.6%. Then `COc1cccc(OC)c1Oc1ccc(C(F)(F)F)cn1`, with -3.92%; and `CCOC(=O)C1=C(N)Oc2cc(C)n(CCc3ccc(OC)c(OC)c3)c(=O)c2C1c1cccnc1` (stereo not drawn), with -16.4%. In the case of `c1ccc(-c2cc(-c3ccccc3)n3ncnc3n2)cc1`, the “hERG current change (%, negative = inhibition) at 10uM” value was -49.5%.

In the case of `CCC1CCCCN1S(=O)(=O)c1ccc(NC(=O)C2CCN(C(=O)c3ccco3)CC2)cc1` (stereo not drawn), the “hERG current change (%, negative = inhibition) at 10uM” value is on record as -24%. For `CCOC(=O)c1c(N)sc(C(C)=O)c1C` the value was 10.5%; for `N#Cc1cc([N+](=O)[O-])cnc1NCC(O)CO` (stereo not drawn), -0.657%. Then `CC(C)NC(=O)CSc1nc2ccccc2c(=O)n1CCCOC(C)C`, with 7.37%; and `CCn1c(SCC(=O)Nc2nonc2C)nnc1-c1ccco1`, with -8.38%.

`O=c1ccc(C(F)(F)F)cn1Cc1cc(=O)n2cc(Br)ccc2n1`: the “hERG current change (%, negative = inhibition) at 10uM” value is on record as -6.81%.

As for `Cc1ccc(N2CC(NS(=O)(=O)c3cccs3)CC2=O)cc1` (stereo not drawn), the “hERG current change (%, negative = inhibition) at 10uM” value was 7.53%. Then `CSc1nc2cc(F)c(F)cc2n1C`, with -1.51%. Then `C/C(N)=C(/C#N)C(=O)CSc1nnc(SCc2ccc(Cl)cc2)s1`, with -3.99%; and `CCOC(=O)c1ccc[n+](CC(=O)Nc2ccccc2OC(F)F)c1.[Cl-]`, with 4.85%; and `O=C(Nc1ccccc1)NC1CCN(Cc2nnnn2C2CCCCC2)CC1`, with -29.2%. For `Cc1cc(C)c2c3c(sc2n1)C(=O)N(Cc1ccccc1)CC(=O)N3` the value was -26%.

On to `S=c1[nH]nc(-c2ccccn2)n1/N=C/c1c(Cl)cccc1Cl`, for which the “hERG current change (%, negative = inhibition) at 10uM” value came to 19.5%. As to `O=C(CCN1CCCCCC1)Nc1ccc(F)c(F)c1`, the “hERG current change (%, negative = inhibition) at 10uM” value was -43.1%. For `CC1CCc2c(sc(NC(=O)Cn3nc(C(F)(F)F)c4c3CCCCC4)c2C#N)C1` (stereo not drawn) the value was 6.82%. For `Cc1ccc(/C=C2\SC(=S)N(CCC(=O)NNC(=O)c3ccncc3)C2=O)cc1` the value was 12.9%; for `O=C(CN1CCCCC1)Nc1c2c(nc3ccccc13)N(c1ccccc1)CC2.O=C(O)C(=O)O`, 3.12%; for `Cl.OC(COCC1COc2ccccc2O1)CN1CCCCC1` (stereo not drawn), -43.6%. For `O=C(Nc1cccc(NC(=O)N2CCN(c3ccccc3)CC2)c1)N1CCN(c2ccccc2)CC1` the value was -44.4%; for `O=C(O)c1nn(CCOc2cccc(Cl)c2)c(=O)c2ccccc12`, -10.6%. Consider `Cc1ccc(SCC(=O)Nc2ccc(N3CCOCC3)cc2)c(C)c1`, for which the “hERG current change (%, negative = inhibition) at 10uM” value worked out at 10.5%.

Take `CCOc1cc(CN2CCN(c3ncccn3)CC2)ccc1OC`: the “hERG current change (%, negative = inhibition) at 10uM” value was -4.8%. As to `COc1ccc(/C=N/NC(=O)c2snnc2C)c(OC)c1OC`, the “hERG current change (%, negative = inhibition) at 10uM” value turned out to be 2.98%. With `CCOc1ccc(-n2cnnn2)cc1S(=O)(=O)NC1CC1`, the “hERG current change (%, negative = inhibition) at 10uM” value is reported as -0.281%. Take `CC(=O)Nc1ccc(S(=O)(=O)N2CCN(C34CC5CC(CC(C5)C3)C4)CC2)cc1`: the “hERG current change (%, negative = inhibition) at 10uM” value is reported as -3.7%. Then `Cc1ccc(S(=O)(=O)N2CCCC2CNC(=O)C(=O)NC2CCCC2)cc1` (stereo not drawn), with -40.3%; and `Cc1nnnn1/C(=C\c1ccccc1)C(=O)OCC(=O)Nc1ccc(Cl)cc1F`, with -13.7%; and `CCCCn1c(=O)c(C(=O)NCc2ccccc2)c(O)c2ccccc21`, with 17.2%. `COCc1cc(=O)[nH]c(/N=C(\N)Nc2ccc(Oc3ccccc3)cc2)n1`: the “hERG current change (%, negative = inhibition) at 10uM” value is given as -20.8%.

`O=c1[nH]c(=S)[nH]c(O)c1N=Nc1cc(S(=O)(=O)Nc2ccc(Cl)cc2)ccc1Cl`: the “hERG current change (%, negative = inhibition) at 10uM” value came out at 3.52%.

Turning to `C=CCNC(=O)CN1C(=O)C2C3c4ccccc4C(c4ccccc43)C2C1=O` (stereo not drawn), the “hERG current change (%, negative = inhibition) at 10uM” value is given as 26.9%. Regarding `CCCn1nnc2ccccc2c1=O`, the “hERG current change (%, negative = inhibition) at 10uM” value is -4.09%. For `Cc1ccc(C(=O)NNC(=O)C2CCN(S(=O)(=O)c3ccc(C)cc3)CC2)cc1` the value was -3.49%. Turning to `CC(C)CNc1ncnc2c1sc1nc(N3CCOCC3)c3c(c12)CC(C)(C)OC3`, the “hERG current change (%, negative = inhibition) at 10uM” value is -4.77%.

Take `O=C(N/N=C/c1cccc([N+](=O)[O-])c1O)C(O)(c1ccccc1)c1ccccc1`: the “hERG current change (%, negative = inhibition) at 10uM” value stood at 8.16%.
